Results: publication PMC9230856
Substitutions are numbered along the chain they refer to. These are yes or no findings as the source states them, for the method shown. Some entries that bind do so weakly or less than the wild type. For some of these results: Tags and fused reporters may be left off the sequences shown.

Key:
[1] = target: human NTCP Y146E mutant, FLAG-tagged (human) (UniProt Q14973); assay: fluorescence microscopy of labelled peptide bound to cells; T-Rex Flp-In HEK293 cell lines stably transfected with NTCP-FLAG wt, Y146A, Y146E or Y146F (tetracycline-inducible); myr-preS1-AX568 peptide; cell-based fluorescence quantified in regions of interest (RFU); only the binder purified
[2] = target: human NTCP Y146F mutant, FLAG-tagged (human) (UniProt Q14973); assay: as above
[3] = target: T1, human Na+/taurocholate cotransporting polypeptide (NTCP), wild type, FLAG-tagged (human) (UniProt Q14973); assay: as above
T1 sequence: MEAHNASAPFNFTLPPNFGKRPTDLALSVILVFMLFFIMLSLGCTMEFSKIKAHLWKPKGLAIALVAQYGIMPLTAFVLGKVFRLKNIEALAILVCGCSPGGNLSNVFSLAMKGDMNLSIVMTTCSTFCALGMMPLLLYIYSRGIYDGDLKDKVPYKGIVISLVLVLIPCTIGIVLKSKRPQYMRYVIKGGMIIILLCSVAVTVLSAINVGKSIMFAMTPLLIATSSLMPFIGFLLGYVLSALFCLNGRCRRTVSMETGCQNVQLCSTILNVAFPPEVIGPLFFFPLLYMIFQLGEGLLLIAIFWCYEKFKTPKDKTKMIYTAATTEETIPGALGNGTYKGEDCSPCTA

[4] = target: T2, human NTCP Y146A mutant, FLAG-tagged (human) (UniProt Q14973); assay: as above
T2 sequence: T1 sequence with Y146A

[5] = target: human NTCP Y139A mutant, FLAG-tagged (human) (UniProt Q14973); assay: fluorescence microscopy of labelled peptide bound to cells; HEK293 cells transiently transfected with NTCP-FLAG wt or mutants; 50 nM myr-preS1-AX568 in DMEM, 30 min (legends: 20 min) at 37 °C, washed, fixed with 2% PFA; cell-based fluorescence quantified in regions of interest (RFU); only the binder purified
[6] = target: human NTCP Y139A/Y141A/Y146A triple mutant, FLAG-tagged (human) (UniProt Q14973); assay: as above
[7] = target: human NTCP Y141A mutant, FLAG-tagged (human) (UniProt Q14973); assay: as above
[8] = target: human NTCP Y146E mutant, FLAG-tagged (human) (UniProt Q14973); assay: as above
[9] = target: human NTCP Y146F mutant, FLAG-tagged (human) (UniProt Q14973); assay: as above
[10] = target: T1, human Na+/taurocholate cotransporting polypeptide (NTCP), wild type, FLAG-tagged (human); assay: as above
[11] = target: T2, human NTCP Y146A mutant, FLAG-tagged (human); assay: as above
[12] = target: human NTCP R143A mutant, FLAG-tagged (human) (UniProt Q14973); assay: as above
[13] = target: human NTCP Y141F mutant, FLAG-tagged (human) (UniProt Q14973); assay: as above

myr-preS1-AX568 peptide (N-terminally myristoylated, C-terminally Alexa 568-coupled preS1 peptide, amino acids 2-48 of the large HBV surface protein, sub-genotype D3) (from UniProt P03138 2-48)
binding [1]: no binding
binding [2]: binds weakly
binding [3]: binds
binding [4]: no binding
binding [5]: binds
binding [6]: no binding (tested: 50 nM)
binding [7]: binds
binding [8]: no binding (tested: 50 nM)
binding [9]: binds weakly
binding [10]: binds
binding [11]: no binding (tested: 50 nM)
binding [12]: binds
binding [13]: binds
